According to paper PMC3038938:
No constants are given. Whether binding was seen depends on the method and setting. In cells and extracts the contact can be indirect. Some binding calls cover weakened binding; strength is not graded here. For some assays here: Where a sequence is shown, tags or fusion partners need not be part of it.

T1: C-terminally GFP-tagged cGKII (mouse) (UniProt Q61410)
T1 sequence: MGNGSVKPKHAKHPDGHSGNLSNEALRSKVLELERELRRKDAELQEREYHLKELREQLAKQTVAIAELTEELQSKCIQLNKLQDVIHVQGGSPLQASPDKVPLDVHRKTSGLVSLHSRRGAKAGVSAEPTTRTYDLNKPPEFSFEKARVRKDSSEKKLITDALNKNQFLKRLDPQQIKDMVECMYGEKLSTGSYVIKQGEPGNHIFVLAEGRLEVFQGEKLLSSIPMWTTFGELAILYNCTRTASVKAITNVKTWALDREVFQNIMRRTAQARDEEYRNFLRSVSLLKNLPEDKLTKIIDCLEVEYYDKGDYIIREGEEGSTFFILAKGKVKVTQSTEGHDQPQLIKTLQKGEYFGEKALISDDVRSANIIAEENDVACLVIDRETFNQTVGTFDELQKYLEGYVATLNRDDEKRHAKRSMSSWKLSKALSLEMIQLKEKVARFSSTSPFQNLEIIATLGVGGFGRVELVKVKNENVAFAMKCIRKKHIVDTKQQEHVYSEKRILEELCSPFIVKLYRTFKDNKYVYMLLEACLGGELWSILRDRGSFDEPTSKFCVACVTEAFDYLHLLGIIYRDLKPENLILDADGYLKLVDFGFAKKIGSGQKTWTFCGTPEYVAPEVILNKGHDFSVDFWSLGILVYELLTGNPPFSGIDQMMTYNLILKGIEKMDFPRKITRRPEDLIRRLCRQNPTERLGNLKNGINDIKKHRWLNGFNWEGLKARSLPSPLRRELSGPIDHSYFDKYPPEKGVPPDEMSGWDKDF

T2: cGMP-dependent protein kinase II (mouse) (UniProt Q61410)
T2 sequence: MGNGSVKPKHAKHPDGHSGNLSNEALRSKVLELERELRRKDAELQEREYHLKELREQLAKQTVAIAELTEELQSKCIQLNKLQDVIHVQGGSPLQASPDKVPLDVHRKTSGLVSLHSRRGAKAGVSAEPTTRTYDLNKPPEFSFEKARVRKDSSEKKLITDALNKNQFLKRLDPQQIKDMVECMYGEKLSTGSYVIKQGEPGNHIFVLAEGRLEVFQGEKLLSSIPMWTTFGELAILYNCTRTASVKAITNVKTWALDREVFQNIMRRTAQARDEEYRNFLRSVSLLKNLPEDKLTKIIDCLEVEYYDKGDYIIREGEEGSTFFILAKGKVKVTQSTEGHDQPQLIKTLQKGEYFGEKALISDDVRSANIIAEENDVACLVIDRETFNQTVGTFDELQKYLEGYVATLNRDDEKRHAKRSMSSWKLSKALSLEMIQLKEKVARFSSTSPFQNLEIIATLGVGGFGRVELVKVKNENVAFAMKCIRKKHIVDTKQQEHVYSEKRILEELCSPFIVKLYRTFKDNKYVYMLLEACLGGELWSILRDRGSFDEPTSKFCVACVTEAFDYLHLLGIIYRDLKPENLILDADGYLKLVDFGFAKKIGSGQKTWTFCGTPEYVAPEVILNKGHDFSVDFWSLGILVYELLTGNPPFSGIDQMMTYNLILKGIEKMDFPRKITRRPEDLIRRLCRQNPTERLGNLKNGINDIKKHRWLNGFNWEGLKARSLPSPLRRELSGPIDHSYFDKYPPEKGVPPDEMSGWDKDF

T3: cGMP-dependent protein kinase II, endogenous in mouse hypothalamus (mouse (endogenous in hypothalamus)) (UniProt Q61410)
T3 sequence: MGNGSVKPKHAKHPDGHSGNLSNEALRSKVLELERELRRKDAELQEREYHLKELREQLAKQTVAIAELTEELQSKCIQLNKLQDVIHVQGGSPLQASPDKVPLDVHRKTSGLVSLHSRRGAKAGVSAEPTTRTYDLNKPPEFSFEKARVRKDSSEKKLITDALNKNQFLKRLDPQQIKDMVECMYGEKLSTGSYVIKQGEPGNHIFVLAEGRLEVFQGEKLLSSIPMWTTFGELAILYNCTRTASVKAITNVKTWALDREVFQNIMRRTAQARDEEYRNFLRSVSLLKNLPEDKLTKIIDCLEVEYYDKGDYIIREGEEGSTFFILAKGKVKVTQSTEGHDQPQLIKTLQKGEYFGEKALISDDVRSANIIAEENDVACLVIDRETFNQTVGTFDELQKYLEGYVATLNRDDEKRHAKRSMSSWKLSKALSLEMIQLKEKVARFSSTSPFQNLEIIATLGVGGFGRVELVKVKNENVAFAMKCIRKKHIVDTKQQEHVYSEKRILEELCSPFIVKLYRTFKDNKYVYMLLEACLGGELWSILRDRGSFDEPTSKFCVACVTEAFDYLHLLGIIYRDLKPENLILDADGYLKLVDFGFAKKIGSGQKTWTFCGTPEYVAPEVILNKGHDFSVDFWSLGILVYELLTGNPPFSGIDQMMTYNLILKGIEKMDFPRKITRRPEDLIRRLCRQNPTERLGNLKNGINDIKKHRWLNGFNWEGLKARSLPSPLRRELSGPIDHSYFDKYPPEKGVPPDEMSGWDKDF


Columns and labels:
[1] = target: T1, C-terminally GFP-tagged cGKII (mouse); test: co-IP; GFP-Trap-A (Chromotek): lysates of HEK293 cells coexpressing cGKII-GFP and myc-tagged portions of the HCN2 C-terminus; immunoblot with anti-myc
[2] = target: T2, cGMP-dependent protein kinase II (mouse); test: co-IP; lysates of HEK293 cells coexpressing HCN2 and cGKII; IP with anti-cGKII antibody and protein A-Sepharose overnight at 4°C; lysis buffer with 1% Triton X-100, 150 mM NaCl; wash with 300 mM KCl; immunoblot for HCN2
[3] = target: T3, cGMP-dependent protein kinase II, endogenous in mouse hypothalamus (mouse (endogenous in hypothalamus)); test: co-IP; protein extracts of mouse hypothalamus (WT and HCN2-KO); IP with anti-cGKII antibody and protein A-Sepharose overnight at 4°C; immunoblot for HCN2

binding [1] | Binder | also measured
binds | myc-tagged combined C-linker/cyclic-nucleotide binding domain of HCN2 (aa 443-647) (domain or fragment, UniProt O88703 443-647) DSSRRQYQEKYKQVEQYMSFHKLPADFRQKIHDYYEHRYQGKMFDEDSILGELNGPLREEIVNFNCRKLVASMPLFANADPNFVTAMLTKLKFEVFQPGDYIIREGTIGKKMYFIQHGVVSVLTKGNKEMKLSDGSYFGEICLLTRGRRTASVRADTYCRLYSLSVDNFNEVLEEYPMMRRAFETVAIDRLDRIGKKNSILLHKV | 
no binding | myc-tagged distal C-terminus of the HCN2 channel (aa 647-863) (domain or fragment, UniProt O88703 647-863) VQHDLSSGVFNNQENAIIQEIVKYDREMVQQAELGQRVGLFPPPPPPQVTSAIATLQQAVAMSFCPQVARPLVGPLALGSPRLVRRAPPGPLPPAASPGPPAASPPAAPSSPRAPRTSPYGVPGSPATRVGPALPARRLSRASRPLSASQPSLPHGVPAPSPAASARPASSSTPRLGPAPTARTAAPSPDRRDSASPGAASGLDPLDSARSRLSSNL | 
no binding | myc-tagged C-linker of HCN2 (aa 443-525) (domain or fragment, UniProt O88703 443-525) DSSRRQYQEKYKQVEQYMSFHKLPADFRQKIHDYYEHRYQGKMFDEDSILGELNGPLREEIVNFNCRKLVASMPLFANADPNF | 
 | HCN2 channel (hyperpolarization-activated cyclic nucleotide-gated channel 2), full length (protein, UniProt O88703 1-863) MDARGGGGRPGDSPGTTPAPGPPPPPPPPAPPQPQPPPAPPPNPTTPSHPESADEPGPRARLCSRDSACTPGAAKGGANGECGRGEPQCSPEGPARGPKVSFSCRGAASGPSAAEEAGSEEAGPAGEPRGSQASFLQRQFGALLQPGVNKFSLRMFGSQKAVEREQERVKSAGAWIIHPYSDFRFYWDFTMLLFMVGNLIIIPVGITFFKDETTAPWIVFNVVSDTFFLMDLVLNFRTGIVIEDNTEIILDPEKIKKKYLRTWFVVDFVSSIPVDYIFLIVEKGIDSEVYKTARALRIVRFTKILSLLRLLRLSRLIRYIHQWEEIFHMTYDLASAVMRICNLISMMLLLCHWDGCLQFLVPMLQDFPSDCWVSINNMVNHSWSELYSFALFKAMSHMLCIGYGRQAPESMTDIWLTMLSMIVGATCYAMFIGHATALIQSLDSSRRQYQEKYKQVEQYMSFHKLPADFRQKIHDYYEHRYQGKMFDEDSILGELNGPLREEIVNFNCRKLVASMPLFANADPNFVTAMLTKLKFEVFQPGDYIIREGTIGKKMYFIQHGVVSVLTKGNKEMKLSDGSYFGEICLLTRGRRTASVRADTYCRLYSLSVDNFNEVLEEYPMMRRAFETVAIDRLDRIGKKNSILLHKVQHDLSSGVFNNQENAIIQEIVKYDREMVQQAELGQRVGLFPPPPPPQVTSAIATLQQAVAMSFCPQVARPLVGPLALGSPRLVRRAPPGPLPPAASPGPPAASPPAAPSSPRAPRTSPYGVPGSPATRVGPALPARRLSRASRPLSASQPSLPHGVPAPSPAASARPASSSTPRLGPAPTARTAAPSPDRRDSASPGAASGLDPLDSARSRLSSNL | binding [2]: binds
 | HCN2, endogenous in mouse hypothalamus (protein, UniProt O88703 1-863) MDARGGGGRPGDSPGTTPAPGPPPPPPPPAPPQPQPPPAPPPNPTTPSHPESADEPGPRARLCSRDSACTPGAAKGGANGECGRGEPQCSPEGPARGPKVSFSCRGAASGPSAAEEAGSEEAGPAGEPRGSQASFLQRQFGALLQPGVNKFSLRMFGSQKAVEREQERVKSAGAWIIHPYSDFRFYWDFTMLLFMVGNLIIIPVGITFFKDETTAPWIVFNVVSDTFFLMDLVLNFRTGIVIEDNTEIILDPEKIKKKYLRTWFVVDFVSSIPVDYIFLIVEKGIDSEVYKTARALRIVRFTKILSLLRLLRLSRLIRYIHQWEEIFHMTYDLASAVMRICNLISMMLLLCHWDGCLQFLVPMLQDFPSDCWVSINNMVNHSWSELYSFALFKAMSHMLCIGYGRQAPESMTDIWLTMLSMIVGATCYAMFIGHATALIQSLDSSRRQYQEKYKQVEQYMSFHKLPADFRQKIHDYYEHRYQGKMFDEDSILGELNGPLREEIVNFNCRKLVASMPLFANADPNFVTAMLTKLKFEVFQPGDYIIREGTIGKKMYFIQHGVVSVLTKGNKEMKLSDGSYFGEICLLTRGRRTASVRADTYCRLYSLSVDNFNEVLEEYPMMRRAFETVAIDRLDRIGKKNSILLHKVQHDLSSGVFNNQENAIIQEIVKYDREMVQQAELGQRVGLFPPPPPPQVTSAIATLQQAVAMSFCPQVARPLVGPLALGSPRLVRRAPPGPLPPAASPGPPAASPPAAPSSPRAPRTSPYGVPGSPATRVGPALPARRLSRASRPLSASQPSLPHGVPAPSPAASARPASSSTPRLGPAPTARTAAPSPDRRDSASPGAASGLDPLDSARSRLSSNL | binding [3]: binds
